# PubChem BioAssay (Tox21)
# Where “and” joins values, the source holds several entries; their conditions need not be identical. Equal entries are not always repeated. This list was built around the results that the source calls inconclusive (neither active nor inactive); the mix of calls is not that of the screen. Potencies of inconclusive entries are doubtful fits and often do not repeat. Calls of active or inactive are those of the source. Calls follow the shape of the dose curve; as a rule, active = well fitted curve in the direction sought with a large enough effect in the repeat runs; inconclusive = weak or mixed curves; inactive = no such curve, though single readings can be large; an effect the other way counts as inactive or inconclusive.
# Test: qHTS assay to identify small molecule antagonists of the retinoic acid receptor (RAR) signaling pathway (AID 1159552; also: nearly all actives have a fitted effect of over 50% in size)
# Settings: C3RL4 RARE luciferase reporter, retinol-stimulated, 6 h; series mostly up to 92.4 µM
# Procedure, shortened: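 Using a RARE-driven luciferase construct in C3RL4 cells, retinol at 1 uM final provided the agonist stimulus while compounds were co-applied. After 6 hours at 37 C, luminescence was recorded to flag inhibitors of retinol signaling.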
# Potency is read from the fitted curve at half-maximal effect; tags tell the direction and shape of the fitted curve.
row,SMILES,Potency
1,CCCN(CCCl)c1c([N+](=O)[O-])cc(C(F)(F)F)cc1[N+](=O)[O-],"inconclusive: 61.1 µM [inhibitor, single point]"
2,CC(c1ccccc1)(c1ccc(O)cc1)c1ccc(O)cc1,"inconclusive: 68.6 µM [inhibitor, single point]"
3,O=S(=O)(c1ccc(Cl)cc1)c1cc(Cl)c(Cl)cc1Cl,"inconclusive: 30.6 µM [inhibitor] and inconclusive: 54.5 µM [inhibitor, partial curve]"

# Test: qHTS assay to identify small molecule agonists of the retinoic acid receptor (RAR) signaling pathway (AID 1159553); as to activation: % is scaled to controls: 0 for no effect and ±100 for the full control effect
# Settings: C3RL4 RARE luciferase reporter, agonist, 6 h; activation: at 73.3 µM (top of the series) unless noted
# Procedure, shortened: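 RARE-luc C3RL4 cells; overnight attachment 37 C/5% CO2; compound (DMSO) 6 hr; luciferase reagent, 30 min RT; luminescence read-out.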
SMILES,Potency,activation
Cc1cc(C)nc(Nc2ccccc2)n1,"inconclusive: 54.5 µM [activator, partial curve, poor fit]",–
Oc1ccc([C@H]2CNCc3c2ccc(O)c3O)cc1O,active: 23.7 µM,–
Nc1ccc(Cc2ccc(N)c(Cl)c2)cc1Cl,"inconclusive: 29.6 µM [activator, partial curve, poor fit]",–
O=[N+]([O-])O.O=[N+]([O-])O.[Cd],"inconclusive: 9.69 µM [activator, partial curve, poor fit]",–
CCOP(=S)(NC(C)C)Oc1ccccc1C(=O)OC(C)C (configuration not stated),"inconclusive: 54.5 µM [inhibitor, partial curve, poor fit]",–
Cc1ccc(N=CN(C)C=Nc2ccc(C)cc2C)c(C)c1,inactive,–
CC[n+]1ccccc1,"inconclusive: 9.61 µM [inhibitor, partial curve, poor fit]",–
C[C@]12C/C(=C/O)C(=O)C[C@@H]1CC[C@@H]1[C@@H]2CC[C@@]2(C)[C@H]1CC[C@]2(C)O,"inconclusive: 30.9 µM [inhibitor, partial curve, poor fit] and inconclusive: 29.8 µM [inhibitor]",–
c1ccc(CN2CCNCC2)cc1,inconclusive: 148 µM [activator],–
CCCCNC(=O)OCC#CI,"inconclusive: 68.2 µM [inhibitor, single point] and inconclusive: 68.6 µM [inhibitor, single point]",–
O=S(=O)(c1ccc(Cl)cc1)c1cc(Cl)c(Cl)cc1Cl,–,inconclusive: 7.87% [phenotype inactive]
OC(c1ccc(Cl)cc1)(c1cncnc1)c1ccccc1Cl (configuration not stated),"inconclusive: 61.1 µM [inhibitor, partial curve, poor fit]",–
c1ccc(N=NNc2ccccc2)cc1,active: 3.17 µM and active: 7.7 µM,–
NC(=O)C(Cl)Cl,inactive,–
